Assay results as given in ChEMBL document CHEMBL4513135, “CO-ADD screening of IQOG CSIS (Spain) compounds”.
Several values for one entry are separate records, joined by “and”; a condition that tells them apart may be missing. Equal values may be shown once. The list shows a part of the results. Measured potencies and affinities stand elsewhere.

Tested on: Acinetobacter baumannii
Details: Concentration 32 ug.mL-1, ASSAY_TEST Inhibition of Bacterial Growth, detection method Absorption (OD600), MEDIA CAMHB, plate type 384well, NBS, CORNING #3640, time 18 hr

Row | Structure (SMILES) | Inhibition [%] | Inhibition (32 ug/mL)
1 | CCOC(=O)C1=C(C)OC(=O)CC1c1ccccc1 (centres undefined) | 4.99 | –
2 | Cc1ccccc1C=C(C#N)C#N | -1.06 | –
3 | Cc1ccc(C=C(C#N)C#N)cc1 | 4.83 | –
4 | N#Cc1cc(C#N)c(N2C3CCC2CC3)nc1N | 0.47 | –
5 | CC1CC(=O)Nc2nc3c(c(N)c21)CCCC3 (centres undefined) | -1.86 | –
6 | CN1CC=C(c2cccn2C)CC1.Cl | 12.02 | –
7 | Cc1ccc(S(=O)(=O)N2[C@H]3CC[C@@H]2CC3)cc1 | 14.13 | –
8 | CCOC(=O)C1=C(OC)OC(=O)CC1c1ccccc1 (centres undefined) | 10.2 | –
9 | NNC(=O)c1cn(Cc2ccccc2)c2ccccc12 | -5.74 | –
10 | Cc1nc(N)c(C#N)cc1C(=O)O | 7.05 | –
11 | CCOC(=O)C1=C(C)NC(=O)CC1c1ccccc1 (centres undefined) | 11.92 | –
12 | NNCCCc1c[nH]c2ccccc12.O=C(O)/C=C/C(=O)O | -12.17 | –
13 | N#CC(C#N)=Cc1ccc(Cl)cc1 | -8.56 | –
14 | CN1CC=C(c2cccn2C)CC1 | 11.58 | –
15 | CNCc1cn(C)c2ccc(OC)cc12.Cl | 7.55 | –
16 | C#CCN1CCc2nc3nc(Cl)c(C#N)cc3c(N)c2C1 | 14.76 | –
17 | N#CCC(=O)c1ccccc1 | -1.94 | –
18 | Nc1c2c(nc3c1C(c1ccccc1)CC(=O)N3)CCCC2 (centres undefined) | 1.4 | –
19 | Cl.ClCCN1CCCCC1 | 9.08 | –
20 | COc1ccc2c(c1)cc(C[N+](C)(C)C)n2C.[I-] | 1.39 | –

Row | Structure (SMILES) | Inhibition [%] | Inhibition (32 ug/mL)
21 | C#CCN(C)Cc1cc2cc(OCCCC3CCN(Cc4ccc(OC(=O)N(C)C)c5ncccc45)CC3)ccc2n1C | 6.07 | –
22 | COc1ccc(C=C(C#N)C#N)cc1OC | 4.3 | –
23 | Cl.ClCCN1CCCC1 | -2.35 | –
24 | C#CCN(C)Cc1cc2cc(OC(=O)N(C)C)ccc2n1C | 16.5 | –
25 | Nc1c2c(nc3ccccc13)CCN(Cc1ccccc1)C2 | 20.73 | –
26 | CCOC(=O)c1cc2cc(OC(=O)NC3CCN(Cc4ccccc4)CC3)ccc2[nH]1 | 5.68 | –
27 | C#CCN1CCc2nc3nc(OC)c(C#N)cc3c(N)c2C1 | 9.91 | –
28 | NNC(=O)c1cccnc1 [NICOTINIC ACID HYDRAZIDE] | 4.03 | –
29 | C#CCN1CCc2nc(N)c(C#N)c(-c3ccccc3)c2C1 | – | 11.67% and 3.28%
30 | C#CCN(C)Cc1cc2cc(OCc3ccc(OC(=O)N(C)C)c4ncccc34)ccc2n1C | 9.76 | –
31 | COc1cc(C2C(C#N)=C(N)Oc3c2ccc2ccccc32)cc(OC)c1OC (centres undefined) | 6.08 | –
32 | CN(C)C(=O)Oc1ccc(CCl)c2cccnc12 | 12.7 | –
33 | CCOc1nc2nc(C)c(C(=O)O)cc2c(-c2ccccc2)c1C#N | 5.2 | –
34 | CCOC(=O)c1cn(Cc2ccccc2)c2ccccc12 | -8.12 | –
35 | C#CCN1CCc2nc3ncccc3c(N)c2C1.Cl | 10.46 | –
36 | OCC(Cc1cnc[nH]1)NCc1ccccc1 (centres undefined) | 1.9 | –
37 | O=C(CBr)NCc1ccccc1 | -7.44 | –
38 | [N-]=[N+]=NCC(=O)c1ccc(Br)cc1 | -4.15 | –
39 | O=C(N1[C@H]2CC[C@@H]1C(c1nnn[nH]1)C2)C(F)(F)F (some centres undefined) | 17.01 | –
